Experimental data: PMC4778918, “Signal Transduction at the Domain Interface of Prokaryotic Pentameric Ligand-Gated Ion Channels” (PLoS Biology, 2016)

Biological target: ELIC T28D (Dickeya chrysanthemi, UniProt P0C7B7, INS163G/T28D)
Format: cell-based, Erwinia chrisanthemi
Details: ELIC T28D in X. laevis oocytes, two-electrode voltage clamp, 0.5 mM Ca2+; read-out: EC50 of channel activation

NCCS [cysteamine]
EC50: 18 µM
